PubChem BioAssay (NCI)
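96-well plates; 48 h exposure; 5 concentrations. Endpoints by linear interpolation between flanking doses. Not reached: highest tested concentration assigned. GI50: concentration for 50% inhibition of growth. TGI is the concentration that stops growth completely.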

Test system: NCI-H322M lung
Assay: NCI-60 cell line screen, 48 h

## CS(=O)(=O)Nc1cc(-c2ccc3ncc(C#N)c(NCc4ccccc4F)c3c2)cnc1Cl
  GI50: 0.402 µM
  TGI: 10.4 µM
